Test results from PubChem BioAssay AID651820 (National Center for Advancing Translational Sciences (NCATS), 2012).
In all, about 340,000 compounds went through this assay and about 12,000 (3.5%) were called active. The shares of active, inactive and inconclusive entries below differ from those in the screen. Calls follow the shape of the dose curve; as a rule, active = well fitted inhibition curve with a large enough effect; inconclusive = small, poorly fitted or top-dose-only effect, or another doubt; inactive = no such curve, though single readings can be large or run the other way. Potencies of inconclusive entries are left out as doubtful fits.

Assay: qHTS Assay for Inhibitors of Hepatitis C Virus (HCV)
Details: Huh7.5.1 HCVcc-Cre (HCVcc is cell-culture hepatitis C virus) infection, luciferase reporter, 44 h; activity change, negative = inhibition: at 41.8 µM (top of the series) unless noted
Summary of the method: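 Compounds are dispensed onto cells plated 4 h earlier at 1,000 per well, with HCVcc-Cre virus (about 0.5 moi) added next. Following 44 h of culture, luminescent signal is measured for 15 sec after 15 min with substrate at room temperature.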
% is scaled to controls: 0 for no effect and ±100 for the full control effect; potency is read from the fitted curve at half-maximal effect; tags tell the direction and shape of the fitted curve.

SMILES | Potency | activity change, negative = inhibition
COc1ccccc1NC(=O)c1cc([N+](=O)[O-])ccc1NCCN1C(=O)CCC1=O | inconclusive [inhibitor, partial curve] | 
O=C(NCc1cccs1)c1cc2c(s1)CCCC2 | inconclusive [inhibitor, single point] | 
CC(C)[C@H](NC(=O)[C@@H]1Cc2ccccc2CN1)C(=O)Nc1ccc2c(c1)OCO2 | inconclusive [inhibitor, partial curve] | 
O=C1N[C@@H](c2ccccc2)COC(=O)[C@@H](Cc2ccc(F)cc2)C/C=C\C[C@@H]1CC(=O)N(CCO)Cc1ccccc1 | inconclusive [inhibitor, single point] | 
O=C(NC(=S)Nc1ccccc1C(=O)O)c1cncc(Br)c1 |  | inactive: 7.36%
CCCSc1cc(=O)n(-c2ccc(F)cc2)nc1C(=O)OCC | inconclusive [inhibitor, single point] | 
CC(C)(C)c1nnc2sc(SCC(O)=C(C#N)c3nc4ccccc4[nH]3)nn2c1=O |  | inactive: -8.95%
O=C(O)C1C2C=CC3(O2)C1C(=O)N1c2ccccc2COC13 (centres undefined) | inconclusive [inhibitor, single point] | 
CC(=O)c1ccn(S(=O)(=O)c2ccc(Cl)cc2)c1 |  | inactive: 13%
CCOc1ccccc1OCC(=O)Nc1cccc(S(=O)(=O)NC2=NCCCCC2)c1 | inconclusive [inhibitor, full curve, poor fit] | 
O=C(N/N=C\c1ccc([N+](=O)[O-])o1)C1COc2ccccc2O1 (centres undefined) | inconclusive [inhibitor, single point] | 
Cn1c(=O)cc(SCC(=O)N2CCOCC2)c2ccc(Cl)cc21 | inconclusive [inhibitor, partial curve] | 
CN(C)C(=O)NC(Nc1ccc(Cl)cc1Cl)C(Cl)(Cl)Cl (centres undefined) | inconclusive [inhibitor, partial curve] | 
CCn1cc(Cl)c(C(=O)Nc2cccc(CN3CCOCC3)c2)n1 | inconclusive [inhibitor, single point] | 
Cc1c(C(=O)NCCCN2CCOCC2)sc2ncnc(N3CCN(c4ccccc4)CC3)c12 | inconclusive [inhibitor, single point] | 
CCOC(=O)c1ccc(NCn2c(=O)oc3ccccc32)cc1 |  | inactive: 19.5%
O=C(Cn1cnc2ccccc2c1=O)N1CCN(S(=O)(=O)c2ccc(F)cc2)CC1 | inconclusive [inhibitor, partial curve] | 
Cc1ccc(S(=O)(=O)N2CCCCC2CCNC(=O)C(=O)NCCc2ccco2)cc1 (centres undefined) | inconclusive [inhibitor, full curve] | 
COc1ccc(/C(N)=N/OC(=O)N2CCOCC2)cc1 | inconclusive [inhibitor, single point] | 
CS(=O)(=O)c1ccc2nc(NC(=O)CN3CCC(Cc4ccccc4)CC3)sc2c1 |  | inactive: 11.4%
O=Cc1c[nH]c2ncccc12 |  | inactive: 0.241%
COC(=O)c1ccc(Cl)cc1N(Cc1c(F)cccc1Cl)S(C)(=O)=O | inconclusive [inhibitor, single point] | 
O=C(Nc1ccc(N2CCCCCC2)cc1)c1cccc(S(=O)(=O)N2CCOCC2)c1 | active: 2.51 µM | 

SMILES | Potency | activity change, negative = inhibition
O=c1[nH]c2cccc(Cl)c2n(CCNc2ncc(C(F)(F)F)cc2Cl)c1=O | inconclusive [inhibitor, partial curve, poor fit] | 
Nc1cccc(N2C(=O)c3cccc4c(N)ccc(c34)C2=O)c1 |  | inactive: -4.19%
Cc1ccc2c(c1)-n1c(nc3ccccc3c1=O)C(Cc1ccc(O)cc1)NC2=O (centres undefined) |  | inactive: 0.668%
CSc1nc(/C=C2\C=Nc3ccccc32)c(O)n1C | inconclusive [inhibitor, partial curve] | 
CCN1CCN(c2nc(Nc3cccc(F)c3)nc(N)c2[N+](=O)[O-])CC1 | inconclusive [inhibitor, single point] | 
CSCC[C@H](NC(=O)C1=NN(c2c(F)c(F)cc(F)c2F)C(=O)CC1)c1nc2ccccc2[nH]1 |  | inactive: -0.664%
CCOc1ccc(NS(=O)(=O)c2cc(NC(=O)CCNC(=O)c3ccco3)ccc2OC)cc1 |  | inactive: -24.4%
Cc1cccc(C)c1NC(=O)CN(C)C(=O)C(c1ccccc1)c1ccccc1 |  | inactive: -21.1%
COc1ccc(OCC(=O)Nc2ccccc2N2CCCCC2)cc1 | inconclusive [inhibitor, full curve] | 
Cc1ccccc1Cc1c(C)nc2c(C(=O)N3CCN(Cc4ccc5c(c4)OCO5)CC3)cnn2c1C | active: 14.1 µM | 
CCOc1ccc(S(=O)(=O)N2CCN(C(=O)CN3C(=O)NC(C)(C)C3=O)CC2)cc1 |  | inactive: 19%
CC(C)OC(=O)c1c(NC(=O)c2ccco2)sc2c1CCCC2 | inconclusive [inhibitor, partial curve] | 
O=C(OCC(=O)N1CCN(C(=O)COC(=O)c2ccc(O)cc2O)CC1)c1ccc(O)cc1O |  | inactive: 4.04%
Cn1c(CSCc2ccc(F)cc2)nnc1SCC(=O)N1CCN(c2ccccc2)CC1 | inconclusive [inhibitor, single point] | 
CCN1CCN(S(=O)(=O)c2ccc(Cl)c(C(=O)N(C)CCOc3ccc(Cl)cc3)c2)CC1 | inconclusive [inhibitor, single point] | 
CCSc1nc2c(c(=O)n(C)c(=O)n2C)n1Cc1ccc(Cl)cc1 | inconclusive [inhibitor, partial curve] | 
Nc1cccc(-c2cc(-c3ccccc3)nc(-c3cccc(N)c3)n2)c1 | inconclusive [inhibitor, partial curve] | 
Cc1ccc2nc(NC(=S)NC(=O)c3ccco3)sc2c1 |  | inactive: -27%
O=C(CCCn1c(=S)[nH]c2cc3c(cc2c1=O)OCO3)NCc1ccccc1Cl | inconclusive [inhibitor, full curve, poor fit] | 
O=C(NCCC1CCCCN1S(=O)(=O)c1ccc(Cl)cc1)C(=O)NCc1ccco1 (centres undefined) | inconclusive [inhibitor, partial curve] | 
COc1cc(C2CC(=O)N3CN(Cc4ccccc4)CSC3=C2C#N)ccc1OCc1ccccc1 (centres undefined) | inconclusive [inhibitor, single point] | 
CC(=O)Nc1ccc(S(=O)(=O)NCC2CCC(C(=O)N3CCCCCC3)CC2)cc1 (centres undefined) |  | inactive: -2.52%
O=c1oc2ccccc2cc1-c1csc(Cc2nc(-c3ccc(Cl)cc3)cs2)n1 | inconclusive [inhibitor, single point] | 

SMILES | Potency | activity change, negative = inhibition
CC(C)c1ccc(CNNC(=O)c2ccccc2)cc1 |  | inactive: -13.5%
Cc1ccc(OCC(=O)NNC(=S)NC(=O)C(C)(C)C)c(Br)c1 | inconclusive [inhibitor, full curve] | 
COC(=O)c1ccccc1NC(=O)NCCc1ccc(OC)c(OC)c1 | inconclusive [inhibitor, full curve] | 
O=C(Cn1nnc2ccccc2c1=O)N[C@@H](Cc1ccccc1)C(=O)O |  | inactive: 2.18%
COCCNC(=S)NN=C1CCCCC1 | inconclusive [inhibitor, single point] | 
CCOc1ccc(-c2n[nH]c(C)c2-c2ccccc2OC)c(O)c1 | inconclusive [inhibitor, single point] | 
Clc1ccc(N=c2ssnc2Cl)cc1 |  | inactive: 10.6%
COc1ccc(CN(C)CC(O)COc2ccc(C(=O)c3ccccc3)cc2)c(OC)c1OC (centres undefined) | inconclusive [inhibitor, full curve, poor fit] | 
CCc1nc(SCC(=O)Nc2ccc3c(c2)OCCO3)c2oc3ccccc3c2n1 | inconclusive [inhibitor, single point] | 
CCCc1cc(=O)[nH]c(SCC(=O)N2N=C(c3ccc(Cl)cc3)CC2c2ccco2)n1 (centres undefined) |  | inactive: 15.3%
O=C(Cc1ccc(Cl)cc1)N/N=C/c1ccccc1 |  | inactive: 5.29%
CCCN1CCN(C(=O)c2cc(COc3ccc4ncccc4c3)on2)CC1 | active: 10 µM | 
COc1ccc(NC(c2ccccc2)P(=O)(Oc2ccccc2)Oc2ccccc2)cc1 (centres undefined) |  | inactive: 8.04%
Cc1ccc(S(=O)(=O)N2CCN(C(=S)NCc3ccc4c(c3)OCO4)CC2)cc1 | inconclusive [inhibitor, single point] | 
Cc1cc(C)c2[nH]c(C(=O)Nc3ccc4c(c3)OCO4)cc2c1 | inconclusive [inhibitor, partial curve] | 
COc1cc(/C=C/C(=O)O)cc(S(=O)(=O)Nc2ccc(S(=O)(=O)N3CCCCC3)cc2)c1OC |  | inactive: 19.5%
Cc1ccc(C2Nc3ccccc3C(=O)N2CCCN2CCOCC2)cc1 (centres undefined) |  | inactive: -0.583%
COc1ccc(NC(=O)Cn2c(=O)n(-c3ccc(CC(=O)NCc4ccco4)cc3)c(=O)c3ccccc32)cc1 | inconclusive [inhibitor, single point] | 
O=C(c1ccc([N+](=O)[O-])s1)N1CCN(c2ccccc2)CC1 | inconclusive [inhibitor, single point] | 
COCCNc1ncnc2c1cnn2Cc1ccc(Cl)cc1 | inconclusive [inhibitor, single point] | 
COc1ccc(C(=O)Nc2cc(C(F)(F)F)ccc2Cl)cc1OC | inconclusive [inhibitor, partial curve] | 
Cc1nn(-c2ccccc2)c(C)c1/C=N/NC(=O)CSc1nc2ccccc2c(=O)n1-c1ccc(Br)cc1 | inconclusive [inhibitor, full curve] | 
Cc1cccn2c(=O)c3cc(C(=O)NC4CCCC4)c(=N)n(C4CCCC4)c3nc12 | inconclusive [inhibitor, partial curve] | 
